Test results taken from patent US20130202594A1 (published 2013).

Target: T1, recombinant human BMP10 (human, UniProt O95393 317-424)
T1 sequence (looked up): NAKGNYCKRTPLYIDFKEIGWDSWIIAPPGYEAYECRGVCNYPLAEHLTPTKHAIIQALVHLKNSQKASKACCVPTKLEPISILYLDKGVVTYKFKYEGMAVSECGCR
Test: cell-based or functional assay

- firefly luciferase reporter (Smad1/5/8-responsive) relative to Renilla in T98G cells transfected with full-length ALK1; hALK1-Fc 65 ng/ml with BMP10 1 ng/ml: > 80 % reduction
B1: hALK1-Fc (extracellular domain of human ALK1 fused to a human Fc domain with a minimal linker) (Fc fusion)
chain: not shown
notes: also called human ALK1-Fc fusion protein; hALK-Fc
